Measurements reported in PubChem BioAssay (Tox21).
“And” between values parts separate entries of the source, which are not always exact repeats. Identical values can stand only once. Inconclusive means that the source gave no clear call. Such entries were picked first, then a sample of the others. For part of these data: A potency beside an inconclusive call is a rough fit, not a confirmed value. The source made the active and inactive calls. Unless noted, calls follow the shape of the dose curve; as a rule, active = well fitted curve in the direction sought with a large enough effect in the repeat runs; inconclusive = weak or mixed curves; inactive = no such curve, though single readings can be large; an effect the other way counts as inactive or inconclusive.

Key:
[1] = qHTS assay to identify small molecule antagonists of the retinoid acid receptor (RAR) signaling pathway - cell viability counter screen (AID 1159551); also: nearly all actives have a fitted effect of over 35% in size
How it was run: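 C3RL4 cells were seeded overnight at 37 C, then treated with compounds plus 1 uM (final) retinol for 6 h at 37 C. Viability was read as ATP by CellTiter-Glo luminescence after 30 min at room temperature.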

[2] = qHTS assay to identify small molecule antagonists of the retinoic acid receptor (RAR) signaling pathway (AID 1159552; also: nearly all actives have a fitted effect of over 50% in size)
How it was run: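 Antagonism of retinol-induced RARE reporter activity was measured in C3RL4 cells. Exposure to compounds and 1 uM final retinol lasted 6 hr at 37 C, with luminescence as endpoint.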

[3] = qHTS assay to identify small molecule antagonists of the estrogen related receptor (ERR) signaling pathway from Tox21 library - cell viability counter screen (AID 1224834); also: nearly all actives have a fitted effect of over 30% in size
How it was run: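 ERR reporter cells were plated 6 h before compound addition, then exposed to test compounds in DMSO for 17.5 h at 37 C. Viability was read as CellTiter-Fluor fluorescence after a 30-minute incubation at 37 C.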

[4] = qHTS assay to identify small molecule agonists of the constitutive androstane receptor (CAR) signaling pathway - cell viability counter screen (AID 1224836); also: nearly all actives have a fitted effect of over 45% in size
How it was run: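 Double-stable HepG2 hepatoma cells (hCAR plus CYP2B6-2.2kb) are treated for 23 h at 37 C with test compounds in 15-point concentration series. PK11195 at 0.75 uM final is co-added. Cell viability is quantified by CellTiter-Fluor.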

[5] = qHTS assay to identify small molecule antagonists of the constitutive androstane receptor (CAR) signaling pathway - cell viability counter screen (AID 1224837); also: nearly all actives have a fitted effect of over 45% in size
How it was run: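 HepG2 cells stably expressing hCAR and a CYP2B6-2.2kb reporter were plated and pre-incubated 4 hr at 37 C/5% CO2, then given compounds at 15 concentrations plus 50 nM CITCO (final). After 23 hr, viability was read by CellTiter-Fluor fluorescence.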

[6] = target: Nuclear receptor subfamily 1 group I member 3 (Homo sapiens) (UniProt Q14994); assay: qHTS assay to identify small molecule antagonists of the constitutive androstane receptor (CAR) signaling pathway (AID 1224838); also: nearly all actives have a fitted effect of over 40% in size
UniProt Q14994, sequence (Q14994 whole entry, looked up): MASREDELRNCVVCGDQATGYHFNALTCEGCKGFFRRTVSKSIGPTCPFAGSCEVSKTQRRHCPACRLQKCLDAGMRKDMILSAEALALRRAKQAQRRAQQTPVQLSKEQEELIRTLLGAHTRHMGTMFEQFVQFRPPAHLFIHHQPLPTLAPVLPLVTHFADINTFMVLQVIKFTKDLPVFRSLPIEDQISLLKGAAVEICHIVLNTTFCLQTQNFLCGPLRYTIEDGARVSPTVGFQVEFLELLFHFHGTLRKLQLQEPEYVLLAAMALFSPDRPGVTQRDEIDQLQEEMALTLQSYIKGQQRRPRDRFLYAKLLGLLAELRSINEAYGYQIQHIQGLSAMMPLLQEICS
How it was run: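 HepG2 cells stably co-transfected with hCAR and a CYP2B6-2.2kb luciferase reporter were seeded 4 h before compound addition at 15 concentrations. Cells were stimulated with 50 nM CITCO (final) for 24 h at 37 C; luciferase luminescence was then read.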

[7] = qHTS assay to identify small molecule antagonists of the estrogen related receptor signaling pathway with the pleiotropic PPARgamma coactivator (PGC) from Tox21 10K library - cell viability counter screen (AID 1224840; active = well fitted cell-killing curve with a large enough effect in the repeat runs, not every such curve was filed as active; inconclusive = weak or mixed curves, or effect the other way; inactive = no such curve, though single readings can be large or run the other way; also: nearly all actives have a fitted effect of over 40% in size)
How it was run: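 PGC/ERR cells were seeded at 2,000 cells/well and left 6 hours at 37 C/5% CO2 before pin-tool addition of compounds in DMSO. After 17.5 hours at 37 C, CellTiter-Fluor was added and fluorescence read 30 minutes later.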

[8] = target: Thyrotropin receptor (Homo sapiens) (UniProt P16473); assay: qHTS assay to identify small molecule agonists of the thyroid stimulating hormone receptor (TSHR) signaling pathway (AID 1224843; calls by dose curve; also: nearly all actives have a fitted effect of over 45% in size; as to activation: % is scaled to controls: 0 for no effect and ±100 for the full control effect); settings: TSHR-HEK293 cells, cAMP HTRF, agonist mode, 30 min
UniProt P16473, sequence (P16473 whole entry, looked up): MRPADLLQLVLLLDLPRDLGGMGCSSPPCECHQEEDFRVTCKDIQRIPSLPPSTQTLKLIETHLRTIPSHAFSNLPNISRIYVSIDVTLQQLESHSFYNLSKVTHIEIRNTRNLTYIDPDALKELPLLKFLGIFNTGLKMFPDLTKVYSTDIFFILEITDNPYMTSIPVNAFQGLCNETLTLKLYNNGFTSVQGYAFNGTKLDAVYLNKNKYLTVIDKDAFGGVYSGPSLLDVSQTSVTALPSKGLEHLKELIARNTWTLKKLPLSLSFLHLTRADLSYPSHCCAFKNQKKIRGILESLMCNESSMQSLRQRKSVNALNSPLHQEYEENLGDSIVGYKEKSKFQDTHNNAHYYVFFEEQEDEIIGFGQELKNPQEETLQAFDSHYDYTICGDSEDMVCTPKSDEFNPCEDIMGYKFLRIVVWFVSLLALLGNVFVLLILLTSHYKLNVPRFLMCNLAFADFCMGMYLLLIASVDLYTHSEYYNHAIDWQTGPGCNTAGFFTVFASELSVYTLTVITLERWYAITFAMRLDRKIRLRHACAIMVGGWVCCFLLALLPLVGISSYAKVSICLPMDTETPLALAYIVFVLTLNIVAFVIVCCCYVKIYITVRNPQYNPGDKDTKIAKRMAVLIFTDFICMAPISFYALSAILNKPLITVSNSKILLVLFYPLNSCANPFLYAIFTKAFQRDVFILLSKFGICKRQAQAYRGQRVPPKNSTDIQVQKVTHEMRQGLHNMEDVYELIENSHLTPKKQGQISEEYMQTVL
How it was run: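 TSHR-HEK293 cells in agonist mode, 30 min room-temperature step, then cAMP measured by competitive HTRF (cAMP-d2 with anti-cAMP cryptate) after 1 h at room temperature. Tested at 15 concentrations in triplicate.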

[9] = qHTS assay to identify small molecule agonists of the hypoxia (HIF-1) signaling pathway - cell viability counter screen (AID 1224844; calls by dose curve; also: nearly all actives have a fitted effect of over 50% in size)
How it was run: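 HRE-bla ME-180 cells in medium with 0.5% dialyzed FBS were preincubated 5 hrs at 37C, exposed to compounds for 17 hrs, then viability was read as CellTiter-Glo luminescence after 30 min at room temperature, in the reporter wells.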

[10] = qHTS assay to identify small molecule agonists of the retinoic acid receptor (RAR) signaling pathway (AID 1159553); settings: C3RL4 RARE luciferase reporter, agonist, 6 h; activation: at 73.3 µM (top of the series) unless noted; as to activation: % is scaled to controls: 0 for no effect and ±100 for the full control effect
How it was run: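 C3RL4 cells carrying a RARE luciferase reporter were plated overnight at 37 C, then exposed to compounds in DMSO for 6 hr at 37 C and 5% CO2. Luminescence was read 30 min after luciferase reagent addition at room temperature.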

[11] = target: Nuclear receptor subfamily 1 group I member 3 (Homo sapiens) (UniProt Q14994); assay: qHTS assay to identify small molecule agonists of the constitutive androstane receptor (CAR) signaling pathway (AID 1224839); also: nearly all actives have a fitted effect of over 15% in size
How it was run: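 Readout: firefly luciferase luminescence via ONE-Glo. System: HepG2 double-stable for hCAR and CYP2B6-2.2kb. Conditions: 15-point compound titration, PK11195 at 0.75 uM final, 24 h incubation.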

[12] = target: Luciferin 4-monooxygenase (Photinus pyralis) (UniProt P08659); assay: qHTS assay to identify small molecule inhibitors of firefly luciferase (AID 1224835); also: nearly all actives have a fitted effect of over 25% in size
UniProt P08659, sequence (P08659 whole entry, looked up): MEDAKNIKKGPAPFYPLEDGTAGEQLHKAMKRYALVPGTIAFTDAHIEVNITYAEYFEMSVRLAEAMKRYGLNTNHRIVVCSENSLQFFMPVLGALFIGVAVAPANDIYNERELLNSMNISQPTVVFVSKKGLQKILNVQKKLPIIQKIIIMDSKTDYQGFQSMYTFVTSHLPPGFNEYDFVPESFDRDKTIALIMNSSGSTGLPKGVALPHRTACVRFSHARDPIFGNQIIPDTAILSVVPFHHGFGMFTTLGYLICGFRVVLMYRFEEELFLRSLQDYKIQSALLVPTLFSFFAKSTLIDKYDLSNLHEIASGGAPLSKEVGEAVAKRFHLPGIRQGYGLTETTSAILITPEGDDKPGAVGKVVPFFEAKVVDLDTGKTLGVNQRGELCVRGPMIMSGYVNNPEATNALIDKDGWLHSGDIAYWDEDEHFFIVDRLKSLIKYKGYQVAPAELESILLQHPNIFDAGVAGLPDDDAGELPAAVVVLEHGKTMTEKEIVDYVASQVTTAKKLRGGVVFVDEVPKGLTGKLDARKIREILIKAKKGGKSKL
How it was run: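 Biochemical qHTS: compounds run as interplate titrations against purified firefly enzyme, with D-luciferin and ATP each at its KM concentration. Light output recorded by CCD imaging.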

[13] = qHTS assay to identify small molecule antagonists of the estrogen related receptor signaling pathway with the pleiotropic PPARgamma coactivator (PGC) from Tox21 10K library (AID 1224841; call rule not given here; also: actives are mostly falling curves and most rising ones were filed inactive; nearly all actives have a fitted effect of over 50% in size)
How it was run: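 PGC/ERR reporter cells were seeded at 2,000 cells/well and held 6 hours at 37 C/5% CO2 before pin-tool addition of compounds in DMSO. After 18 hours at 37 C, One-Glo was added and luminescence read after 30 minutes at room temperature.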

[14] = activation: at 92.4 µM (top of the series) unless noted
Potency is read from the fitted curve at half-maximal effect; tags tell the direction and shape of the fitted curve or compound fluorescence and quenching.

| Structure (SMILES) | Potency [1] | Potency [2] | Potency [3] | Potency [4] | Potency [5] | Potency [6] | Potency [7] | activation [8, 14] | Potency [9] | Potency [10] | activation [10] | Potency [11] | Potency [12] | Potency [13] | Potency [8, 14] | activation ([8]; at 42.5 µM (top of the series)) | activation ([8]; at 92.4 µM (top of the series)) |
| --- | --- | --- | --- | --- | --- | --- | --- | --- | --- | --- | --- | --- | --- | --- | --- | --- | --- |
| NCc1cccc(C2CCN(C(=O)c3ccc(C#Cc4ccccc4F)o3)CC2)c1 | active: 68.6 µM | active: 54.5 µM | active: 68.6 µM | inconclusive: 68.6 µM [cytotoxic, single point] | active: 68.6 µM | inconclusive: 68.6 µM [inhibitor, single point] | inconclusive: 68.6 µM [cytotoxic, single point] | inconclusive: -50.6% | active: 54.9 µM | – | – | – | – | – | – | – | – |
| CCCCCCCOC(=O)c1ccc(O)cc1 | inconclusive: 38.6 µM [cytotoxic, partial curve, poor fit] | – | inconclusive: 68.7 µM [cytotoxic, partial curve] and inconclusive: 68.6 µM [cytotoxic, partial curve, poor fit] | – | – | – | inconclusive: 68.6 µM [cytotoxic, partial curve, poor fit] | – | active: 55 µM and inconclusive: 54.9 µM [cytotoxic, single point] | active: 34.4 µM | inconclusive: 4.62% [phenotype inactive] | inconclusive: 48.6 µM [activator, partial curve] | – | – | – | – | – |
| O=C(c1cc(O)c(O)c(O)c1)c1ccc(O)c(O)c1O | inconclusive: 54.5 µM [cytotoxic, partial curve, poor fit] | inactive | active: 54.3 µM and active: 54.5 µM and inconclusive: 53.1 µM [cytotoxic, partial curve, poor fit] | inconclusive: 48.4 µM [cytotoxic, partial curve] and inconclusive: 61.1 µM [cytotoxic, single point] | inconclusive: 60.9 µM [cytotoxic, single point] and inconclusive: 68.6 µM [cytotoxic, single point] | – | inconclusive: 43.1 µM [cytotoxic, partial curve, poor fit] and inconclusive: 34.4 µM [cytotoxic, partial curve] | – | – | – | – | – | inconclusive: 79.4 µM [inhibitor, single point] and inconclusive: 39.9 µM [inhibitor, partial curve] and inconclusive: 30.9 µM [inhibitor, partial curve] | inconclusive: 30.5 µM | inconclusive: 48.4 µM [partial curve] | inconclusive: 0.176% | inconclusive: 22.3% |
| Oc1ccc2cc(SSc3ccc4cc(O)ccc4c3)ccc2c1 | inconclusive: 77 µM [cytotoxic, single point] and inconclusive: 61.1 µM [cytotoxic, partial curve, poor fit] | active: 7.7 µM and active: 12.2 µM | – | – | – | – | inconclusive: 68.7 µM [cytotoxic, single point] and inconclusive: 68.6 µM [cytotoxic, single point] | inconclusive: 31.9% | – | inconclusive: 68.7 µM [inhibitor, partial curve, poor fit] and inconclusive: 68.6 µM [inhibitor] | – | inconclusive: 34.4 µM [activator, partial curve] | inconclusive: 89.5 µM [inhibitor, single point] and inconclusive: 79.6 µM [inhibitor, partial curve] | – | – | – | – |
| CCCCCCCCCCOCC(O)CN (centres undefined) | inconclusive: 33.5 µM [cytotoxic, single point] | inconclusive: 29.8 µM [inhibitor, single point] | inconclusive: 33.5 µM [cytotoxic] | inconclusive: 33.5 µM [cytotoxic, single point] | active: 29.8 µM | inconclusive: 33.5 µM [inhibitor, single point] | inconclusive: 33.5 µM [cytotoxic, single point] | – | – | inconclusive: 33.5 µM [inhibitor] | – | – | – | – | active: 21.1 µM | – | – |
| Cc1cc(O)c(C(C)(C)C)cc1C(C)(C)C | active: 43.3 µM | active: 54.5 µM | active: 54.5 µM | active: 61.1 µM | inconclusive: 68.6 µM [cytotoxic, single point] | inconclusive: 68.6 µM [inhibitor, single point] | active: 48.6 µM | – | active: 43.6 µM | inconclusive: 21.7 µM [inhibitor, partial curve, poor fit] | – | – | – | inconclusive: 77 µM [falling, single point] | inconclusive: 68.6 µM [activator] | – | – |
